Molecules are shown by their SMILES. Among all 52,000 compounds or so, about 4,300 (8.3%) were called active. Rule as the data show it: active = survival mostly below about 52% (no sharp cut-off); inactive = mostly above about 56%. The list shows a part of the results.

The subject of this experiment is DeltatarO mutant. The experiment in a line: growth inhibition of S. aureus wild type versus tarO mutant, primary screen, teichoic acid synthesis inhibitors, RN4220, OD600 (AID 463173). The settings on record: OD600, 18 h, hits give low values, screened at 18.75 µg/mL (by protocol).
Consider `COc1ccc(-c2nc3cc(C)ccn3c2NC(=O)c2ccc(F)cc2)cc1`, for which the survival is active: 37%. Regarding `CCn1c(SCC(=O)Nc2ccc(OC)cc2)nnc1C1CC1`, the survival is inactive: 91%. In the case of `Cc1cc2c(cc1S(=O)(=O)N(C)CC(=O)Nc1ccc(C#N)cc1)OCC(=O)N2`, the survival is inactive: 76%.

For the molecule `NS(=O)(=O)c1ccc(CCNC(=O)c2ccc3nc(CCc4ccccc4)oc3c2)cc1`, the survival is inactive: 89%. In the case of `Cc1cccc(C)c1NCc1nnc(SCC(N)=O)n1-c1ccccc1`, the survival is inactive: 80%. For the molecule `CCOC(=O)c1c(S(=O)(=O)NCC(=O)Nc2ccc(C)c(N(C)C)c2)c(C)n(C)c1C`, the survival was inactive: 79%.

On to `Cn1c(=O)c2c(SCC(=O)NCc3ccco3)nc(-c3cccc(F)c3)nc2n(C)c1=O`, for which the survival is inactive: 78%. For `CCOc1ccc(CC(=O)Nc2c(C(=O)Nc3ccc(OC)cc3OC)oc3ccccc23)cc1`, the survival was inactive: 79%. Take `Cc1ccc(S(=O)(=O)c2cn(CC(=O)Nc3ccccc3C)c3cc4c(cc3c2=O)OCO4)cc1`: the survival is inactive: 60%. Consider `Cc1ccc(C(=O)N2Cc3ccccc3CC2C(=O)O)cc1` (stereo unspecified), for which the survival was inactive: 93%.

Regarding `CCOC(=O)C1CCC(CN(Cc2ccc(Cl)cc2)S(=O)(=O)c2cc(Cl)cc(Cl)c2)CC1` (stereo unspecified), the survival is inactive: 72%. In the case of `Cc1cccc(N2CCN(C(=O)C3CCCN(S(=O)(=O)c4ccc(Br)s4)C3)CC2)c1C` (stereo unspecified), the survival is inactive: 83%.

For `Cc1ccc2scc(N3CCC(C)CC3)c(=O)c2c1`, the survival is inactive: 104%. In the case of `CC(C)c1nc2ccc(C(=O)NCCCN3CCN(c4cccc(Cl)c4)CC3)cc2o1`, the survival is inactive: 74%. In the case of `Cc1cccc(N2CCN(C(=O)CN3C(=O)COc4ccc(S(=O)(=O)N5CCC(C)CC5)cc43)CC2C)c1` (stereo unspecified) it was inactive: 67%; in that of `CCOC(=O)N1CCN(Cc2nc3cc([N+](=O)[O-])ccc3n2C(C)C)CC1`, inactive: 92%. In the case of `CCOc1ccc(CCNC(=O)c2nc(-c3cccc(F)c3)n3c2CCCCC3)cc1OCC` it was inactive: 129%; in that of `COC(=O)c1ccc(S(=O)(=O)N(CCO)Cc2cc3cc(OC)c(OC)cc3[nH]c2=O)cc1`, inactive: 62%; in that of `CCOc1ccc(CNC(=O)c2cnc3sc(N4CCOCC4)nn3c2=O)cc1OC`, inactive: 107%. Next, `O=C(O)c1ccc2c(c1)C(=O)NC2=O`: inactive: 74%; `COc1ccccc1NC(=O)CSc1nc2nccnc2c(=O)n1CCc1c[nH]c2ccccc12`: active: 38%. For `CCN(CC)CCNC(=O)CSc1nc2nc(C)c(Cc3ccccc3)c(C)n2n1`, the survival is inactive: 86%. Consider `Cc1[nH]c2ccccc2c1C(c1ccccc1)c1ccc(Cl)s1` (stereo unspecified), for which the survival is active: 0%.

`COc1cccc(CNC(=O)Cc2ccc(NC(=O)N3CCSc4ncccc43)cc2)c1OC`: the survival is inactive: 87%. Consider `O=C(Cc1ccccc1)N1CCC(c2nc3ccccc3[nH]2)CC1`, for which the survival is inactive: 79%. For `CCCOc1ccccc1C(=O)N1CCCCC1CCN1CCOCC1` (stereo unspecified), the survival is inactive: 88%. In the case of `O=c1[nH]c(NCCO)nc2sc3c(c12)CCCC3`, the survival is inactive: 72%.

For `COc1ccc(NC(=O)N2CCCC2C(=O)Nc2ccccc2)cc1` (stereo unspecified), the survival is inactive: 101%. Next, `O=C(Nc1ccccc1F)c1nc(SCc2ccc(F)cc2)ncc1Cl`: inactive: 70%; `N#Cc1cccc(C(c2nnnn2Cc2ccc(F)cc2)N2CCc3ccccc32)c1` (stereo unspecified): inactive: 90%. Take `CCN(C(=O)Cn1ncc2c(=O)oc3ccc(C)cc3c21)c1cc(OC)ccc1OC`: the survival is inactive: 96%. With `CC1CCc2noc(NC(=O)c3ccccc3[N+](=O)[O-])c2C1` (stereo unspecified), the survival was inactive: 107%. For `CCOC(=O)C1CCCN(S(=O)(=O)c2ccc(N3CCCCS3(=O)=O)cc2)C1` (stereo unspecified), the survival is inactive: 55%. For `Cc1cc(C(F)F)n2nc(C(=O)Nc3cc(Cl)ccc3C)nc2n1`, the survival is inactive: 82%. For `CCc1cccc(C)c1NS(=O)(=O)c1cc(-c2cc(C)no2)ccc1C`, the survival is inactive: 83%.

As for `COc1ccc(/C=C(\C#N)C(=O)NCc2ccco2)cc1C`, the survival was inactive: 80%. Consider `Cc1ccc(-n2nc3ccc(NC(=O)c4oc5ccc(C)cc5c4C)cc3n2)cc1`, for which the survival was active: 38%. Regarding `CCOc1ccc(OCC(=O)NCCS(=O)(=O)N2CCN(c3ccc(F)cc3)CC2)cc1`, the survival was inactive: 94%. Next, `CCc1ccccc1NC(=O)N1CCC(NC(=O)C(C)(C)C)CC1`: inactive: 92%. Next, `COc1ccc(NC(=O)c2ccco2)cc1NC(=O)C(C)C`: inactive: 84%; `O=C(CCC1CCCC1)N1CCc2c([nH]c3ccccc23)C1c1ccc(Cl)cc1` (stereo unspecified): inactive: 74%. For the molecule `CCc1ccc(NC(=O)c2ccc(F)c(S(=O)(=O)NC3CCCCCC3)c2)cc1`, the survival was active: -2%.

Regarding `COc1cccc(CNC(=O)CSc2ncc3c(n2)-c2cc(Cl)ccc2N(C)S3(=O)=O)c1`, the survival is inactive: 92%.

`Cc1coc2c(C)c3oc(=O)c(CC(=O)NCc4ccccc4)c(C)c3cc12`: the survival is inactive: 71%. With `CCOc1ccccc1NC(=O)c1sc2nc(C)cc(C)c2c1N`, the survival was inactive: 132%.

For the molecule `Cc1c(Cl)cccc1NC(=O)CN1C(=O)COc2ccc(S(=O)(=O)N3CCCCCC3)cc21`, the survival was inactive: 62%. `CCCN1C(=O)C(O)(CC(=O)c2ccc(OC)c(OC)c2)c2ccccc21` (stereo unspecified): the survival is inactive: 146%.

For `CN1CCN(C(=O)c2ccc3c(c2)N(Cc2cccc(Cl)c2)C(=O)c2ccccc2S3(=O)=O)CC1`, the survival was inactive: 72%. For `C/C(=C\C(=O)c1cccnc1)Nc1ccccc1O`, the survival was inactive: 103%.

Regarding `O=C(Nc1ccc2nc(SCCOc3ccccc3)sc2c1)c1cccs1`, the survival is inactive: 83%. On to `COc1ccc(C(=O)N(Cc2ccc(N(C)C)cc2)Cc2ccco2)cc1Cl`, for which the survival is inactive: 72%. As to `Cc1cc(-c2ccc(C)c(S(=O)(=O)Nc3ccccc3C(F)(F)F)c2)on1`, the survival was inactive: 120%. In the case of `Cc1ccc2c(CC(=O)NCc3ccccc3)coc2c1C`, the survival was inactive: 90%. In the case of `OC(CNCc1ccccn1)COc1ccc(OCC(O)CNCc2ccccn2)cc1` (stereo unspecified) it was inactive: 96%; in that of `Cc1ccc(C)n1-c1c(C(=O)NCC(C)c2ccccc2)sc2ncccc12` (stereo unspecified), inactive: 69%; in that of `COc1cccc(CNC(=O)CN2C(=O)CSc3c2c(C)nn3-c2ccccc2)c1OC`, inactive: 78%. Regarding `COc1ccc(CNC(=O)Cn2c(=O)oc3cc(S(=O)(=O)N4CCC(C)CC4)ccc32)cc1`, the survival was inactive: 112%. With `CCOc1ccc(C(=O)Nc2cccc(OCc3cc(=O)n4ccccc4n3)c2)cc1`, the survival is inactive: 119%.

On to `Cc1ccccc1NS(=O)(=O)c1nnc(NC(=O)c2ccc(Cl)cc2)s1`, for which the survival was active: 41%. For the molecule `CCOC(=O)c1[nH]c(C)c(CCC(=O)Nc2ccc(C(C)=O)cc2)c1C`, the survival is inactive: 72%. Consider `O=S(=O)(Nc1cccc(-c2ccc(N3CCCCCC3)nn2)c1)c1ccc(F)cc1`, for which the survival was inactive: 79%. For the molecule `Cc1cccc(CNS(=O)(=O)c2csc(C(N)=O)c2)c1`, the survival was inactive: 76%. Regarding `O=C1C(c2cccc(Br)c2)N(CCc2ccccc2)C(=O)CN1C1CCCCC1` (stereo unspecified), the survival was inactive: 102%. For the molecule `CCOc1cccc(CNCCNC(=O)c2nonc2N)c1`, the survival was inactive: 61%. Regarding `COc1ccc(NC(=O)CCCn2c(=O)c3cccn3c3ccccc32)c(OC)c1`, the survival was active: 57%. As for `COc1ccc(C(=O)Oc2c(Sc3ccc(Cl)cc3)c(C)nn2C(C)(C)C)cc1OC`, the survival was inactive: 56%.

On to `O=C(NCCc1csc(-c2ccc(C(F)(F)F)cc2)n1)C(=O)Nc1cc(F)ccc1F`, for which the survival is inactive: 102%. As for `CCCCN(C)CCNC(=O)C1CCCN(S(=O)(=O)c2ccc3c(c2)oc(=O)n3C)C1` (stereo unspecified), the survival was inactive: 104%. `CCOC(=O)c1c(C)[nH]c(CCC(=O)NCCCN2CCN(c3cc(Cl)ccc3C)CC2)c1C`: the survival was inactive: 99%. `Cc1c(CCNC(=O)Cc2ccc(F)cc2)sc2nc(-c3ccc(F)cc3)nn12`: the survival was inactive: 80%. In the case of `O=C(Cn1c(=O)c2ccccc2n(CC(=O)Nc2ccc(Cl)cc2)c1=O)NCCc1ccccc1` it was inactive: 75%; in that of `CCc1ccccc1NC(=O)Cn1c(=O)n(CCCS(=O)(=O)C2CCCCC2)c(=O)c2ccccc21`, inactive: 86%. For the molecule `O=C(CCc1ccccc1)NCc1ccco1`, the survival was inactive: 88%.

As for `Cc1cccc(Cn2c(=O)n(Cc3ccc(C(=O)NC4CCN(Cc5ccccc5)CC4)cc3)c(=O)c3ccccc32)c1`, the survival was inactive: 86%. `Oc1ccc(Nc2nc3ccccc3n3cnnc23)cc1`: the survival is inactive: 85%.

Take `Cc1[nH]c(=O)[nH]c(=O)c1NC(=O)CSc1nc2c(C)cccc2cc1C#N`: the survival is inactive: 102%. With `CCOC(=O)c1cnc2c(C)cc(C)cc2c1Nc1cccc(C(=O)O)c1`, the survival was active: 5%. Take `CCOCCCNC(=O)CN1C(=O)COc2ccc(S(=O)(=O)N3CCCCCC3)cc21`: the survival is inactive: 81%. On to `Cc1ccc(C2c3c(-c4cc(C)ccc4O)n[nH]c3C(=O)N2Cc2ccco2)cc1` (stereo unspecified), for which the survival was active: 1%.

As for `O=C(Nc1cccc2cccnc12)c1ccccc1[N+](=O)[O-]`, the survival is inactive: 68%. Consider `COc1ccc2oc(=O)c(C(=O)NCCO)cc2c1`, for which the survival is inactive: 95%. Next, `CCCN1CC=C2C(C#N)=C(N)C(C#N)(C#N)C(c3ccc(OCC(N)=O)cc3)C2C1` (stereo unspecified): inactive: 81%; `Cc1ccc(S(=O)(=O)c2cnc(SCC(=O)Nc3cccc(Cl)c3)nc2N)cc1C`: inactive: 54%; `CCN(CC)C(=O)Cn1cc(SCC(=O)Nc2cccc(F)c2)c2ccccc21`: inactive: 109%.

Consider `COc1ccc(C(CC(=O)O)NC(=O)c2cc3ccccc3oc2=O)cc1OC` (stereo unspecified), for which the survival is inactive: 60%. Next, `CSc1ccc(NC(=O)C(C)N2CCN(C)CC2)cc1` (stereo unspecified): inactive: 82%; `CCOC(=O)c1ccccc1NC(=O)NC(C)c1c(-n2cccc2)sc(C)c1C` (stereo unspecified): inactive: 57%; `Cc1ccc(C)c(NC(=O)CN2C(=O)c3cccc4cccc2c34)c1`: inactive: 56%. Next, `O=C(O)/C=C/c1cccc(N=NN2CCCCC2)c1`: inactive: 92%; `O=c1c2ccccc2n2c(-c3ccccc3O)nnc2n1Cc1ccc(F)cc1`: inactive: 95%. Regarding `Cc1cccc(Cn2ccn(Cc3ccc(Cl)cc3)c(=O)c2=O)c1`, the survival is inactive: 121%.

The record behind these values is PubChem BioAssay AID463173 (ICCB-Longwood Screening Facility, Harvard Medical School, 2010).
